Source: PubChem BioAssay AID624173 (National Center for Advancing Translational Sciences (NCATS), 2012)
The whole screen tested about 410,000 compounds, of which about 490 (0.12%) were called active. Inconclusive results, whose numbers are uncertain, are shown with a selection of clear calls. The call rests on the fitted dose curve; in most records, active means well fitted inhibition curve with a large enough effect; inconclusive means small, poorly fitted or top-dose-only effect; inactive means flat fitted curve, though single readings scatter. A potency beside an inconclusive call is a rough fit, not a confirmed value.

molecular target: pyruvate kinase (Trypanosoma brucei) (UniProt Q57TT1); experiment: qHTS of Trypanosoma Brucei Inhibitors; conditions: TbPYK enzyme, Kinase-Glo Plus ATP luminescence, 45 min; series mostly up to 76.8 µM; further: nearly all actives have a fitted effect of over 50% in size
Procedure, shortened: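 Screened from lowest to highest concentration, compounds were pinned into TbPYK/substrate mixtures, and ADP (130 uM final) was added. Plates sat at room temperature for 45 min prior to Kinase-Glo Plus detection by luminescence.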
Potency means the concentration at half of the fitted maximal effect; tags describe the fitted curve by direction and shape.

Q: For `Cn1c(-c2sc3cc(C(F)(F)F)cnc3c2-c2ccccn2)n[nH]c1=S`, which Potency is on record?
A: inconclusive: 5.62 µM [inhibitor, partial curve]

Q: `COc1cc2nc(SCC(=O)Nc3cccc(C)c3)n3nc(-c4ccccc4)nc3c2cc1OC` was tested. Which Potency did it give?
A: inactive

Q: For `Oc1c(Br)cc(/C=N/n2c(-c3ccccc3)n[nH]c2=S)cc1Br`, which Potency is on record?
A: inconclusive: 8.91 µM [inhibitor, partial curve]

Q: Which Potency does the source give for `O=C(O)c1ccc2nc(-c3ccco3)c(-c3ccco3)nc2c1` here?
A: inconclusive: 10 µM [inhibitor, partial curve]

Q: Which Potency does the source give for `N#C/C(=C\c1ccc(C(=O)O)cc1)c1ccccn1` here?
A: inconclusive: 39.8 µM [inhibitor, partial curve, poor fit]

Q: With `Nc1cccc(-c2nc3ccc(N)cc3s2)c1` as the compound, how does the Potency read?
A: inconclusive: 39.8 µM [inhibitor, partial curve, poor fit]

Q: With `COc1ccc(CSc2nnc3[nH]c(=O)cc(N)n23)cc1` as the compound, how does the Potency read?
A: inconclusive: 10 µM [inhibitor, partial curve, poor fit]

Q: For `CCOc1ccc(-c2n[nH]c(=S)n2Cc2ccccc2)cc1`, which Potency is on record?
A: inconclusive: 2.51 µM [inhibitor, full curve, poor fit]

Q: With `CCCn1c(C(C)NC(=O)c2ccccc2)n[nH]c1=S` (centres undefined) as the compound, how does the Potency read?
A: inconclusive: 14.1 µM [inhibitor, partial curve]

Q: Which Potency does the source give for `CCOC(=O)CCCc1sc(N)nc1-c1[nH]c(=O)[nH]c1C` here?
A: inconclusive: 25.1 µM [inhibitor, single point]

Q: For `CC1=C(C)CS(=O)N(S(=O)(=O)c2ccc(Cl)cc2)C1` (centres undefined), which Potency is on record?
A: inconclusive: 35.5 µM [inhibitor, partial curve, poor fit]

Q: `CN(Cc1ccco1)S(=O)(=O)c1nnc(NC(=O)c2cccc(Cl)c2)s1` was tested. Which Potency did it give?
A: inconclusive: 35.5 µM [inhibitor, single point]

Q: `CCOC(=O)c1nn(-c2ccccc2)c(=O)c2c(N)scc12` was tested. Which Potency did it give?
A: inconclusive: 39.8 µM [inhibitor, single point]

Q: `CC(=O)NC1C(=O)N(CCN2CCOCC2)c2ccc(Cl)cc21` (centres undefined) was tested. Which Potency did it give?
A: inconclusive: 31.6 µM [inhibitor, single point]

Q: For `CCCCn1c(-c2ccco2)n[nH]c1=S`, which Potency is on record?
A: inconclusive: 12.6 µM [inhibitor, partial curve]

Q: For `CSc1ccc(CN2CCC2(C)C(=O)Nc2cccc(Oc3ccccc3)c2)cc1` (centres undefined), which Potency is on record?
A: inactive

Q: How did the Potency turn out when `O=C(Nc1ccc(C(=O)Oc2ccccc2)c(O)c1)c1ccco1` was run?
A: inconclusive: 39.8 µM [inhibitor, single point]

Q: For `O=C(O)c1ccc(S(=O)(=O)c2ccc3c(c2)C(=O)N(NC(=O)c2cccnc2)C3=O)cc1`, which Potency is on record?
A: inactive

Q: For `Cn1c(COc2ccccc2O)[n+](C)c2ccccc21`, which Potency is on record?
A: inactive

Q: `CCOc1ccc(N=Cc2c(C)[nH]n(-c3nc4ccccc4[nH]3)c2=O)cc1` was tested. Which Potency did it give?
A: inconclusive: 28.2 µM [inhibitor, partial curve, poor fit]

Q: How did the Potency turn out when `COc1cc(NC(=O)c2c(C)oc3ncnc(N4CCCCC4)c23)cc(OC)c1` was run?
A: inactive

Q: With `O=C1NC(=O)N(c2ccccc2)C(=O)/C1=C/c1ccoc1` as the compound, how does the Potency read?
A: inconclusive: 22.4 µM [inhibitor, partial curve]

Q: How did the Potency turn out when `COc1cc(Oc2ccccc2)nc(N)n1` was run?
A: inactive

Q: With `CCCn1c(-c2ccncc2)n[nH]c1=S` as the compound, how does the Potency read?
A: inconclusive: 12.6 µM [inhibitor, partial curve, poor fit]

Q: For `c1ccc(-c2nnc(-c3ccccn3)s2)nc1`, which Potency is on record?
A: inconclusive: 31.6 µM [inhibitor, partial curve, poor fit]

Q: Which Potency does the source give for `Cc1cc(Cl)ccc1NS(=O)(=O)c1ccc2c(c1)CC(C)N2C(=O)C1CCC1` (centres undefined) here?
A: inactive

Q: How did the Potency turn out when `CC(C1CC2CCC1C2)n1c(-c2cccs2)n[nH]c1=S` (centres undefined) was run?
A: inconclusive: 4.47 µM [inhibitor, full curve, poor fit]

Q: How did the Potency turn out when `Clc1ccc(-c2n[nH]c3c2CCC3)cc1Cl` was run?
A: inconclusive: 39.8 µM [inhibitor, single point]

Q: `CC(C)c1ccc(NC(=O)N2CCc3nc(NCc4cccc(Oc5ccccc5)c4)ncc3C2)cc1` was tested. Which Potency did it give?
A: inactive

Q: For `CCn1c(-c2ccc(Cl)cc2)n[nH]c1=S`, which Potency is on record?
A: inconclusive: 17.8 µM [inhibitor, partial curve, poor fit]

Q: `S=c1[nH]cc(-c2ccccc2)n1-c1cccc(Cl)c1` was tested. Which Potency did it give?
A: inconclusive: 1.12 µM [inhibitor, full curve, poor fit]

Q: With `CN(C)c1ccc(C=C2C(=O)NC(=S)NC2=O)cc1[N+](=O)[O-]` as the compound, how does the Potency read?
A: inconclusive: 14.1 µM [inhibitor, partial curve, poor fit]

Q: How did the Potency turn out when `CCC1CCCCN1C(=O)COc1cc(=O)n(C)c2ccccc12` (centres undefined) was run?
A: inconclusive: 28.2 µM [inhibitor, single point]

Q: Which Potency does the source give for `CN1C(=O)C(=Cc2ccccc2Oc2ccc(Cl)cc2)C(=O)N(C)C1=O` here?
A: inconclusive: 20 µM [inhibitor, partial curve, poor fit]

Q: For `O=C(Oc1ccc(-c2cnc3ccccc3n2)cc1)c1ccco1`, which Potency is on record?
A: inconclusive: 15.8 µM [inhibitor, partial curve, poor fit]

Q: Which Potency does the source give for `C=CCn1c(-c2ccccc2)c[nH]c1=S` here?
A: inconclusive: 22.4 µM [inhibitor, partial curve, poor fit]

Q: With `Cc1ccc(C2C3=C(CCCC3=O)Nc3[nH]c(=S)[nH]c(=O)c32)cc1` (centres undefined) as the compound, how does the Potency read?
A: inconclusive: 50.1 µM [inhibitor, single point]

Q: Which Potency does the source give for `O=C(CSc1ccc2ccccc2c1)NCCc1ccc(O)c(O)c1` here?
A: active: 31.6 µM

Q: For `Clc1ccc2nc(-c3ccccc3)cn2c1`, which Potency is on record?
A: inconclusive: 20 µM [inhibitor, partial curve]

Q: `S=C(c1cn(CCOc2cccc3ccccc23)c2ccccc12)N1CCCC1` was tested. Which Potency did it give?
A: inactive

Q: `Oc1cccc(/C=N/NC(=S)Nc2cccnc2)c1O` was tested. Which Potency did it give?
A: inconclusive: 15.8 µM [inhibitor, partial curve]

Q: `CC(C)Oc1ccc(Cn2c(-c3ccco3)n[nH]c2=S)cc1` was tested. Which Potency did it give?
A: active: 2.51 µM

Q: `CN(C)c1ccc(/C=C/C(=O)c2ccccc2O)cc1` was tested. Which Potency did it give?
A: inactive

Q: How did the Potency turn out when `Cc1ccc(OCc2n[nH]c(=S)n2-c2ccc(Cl)cc2)cc1` was run?
A: inconclusive: 31.6 µM [inhibitor, partial curve, poor fit]
